{"source": "the supplement of paper PMC10338343", "note": "± gives the standard deviation. The list shows a part of the results, in another mix than the full data."}
{"tested_on": "MIWI (PIWIL1) piRISC loaded with L1MC piRNA (30 nt)", "assay": "pre-steady-state target cleavage rate (min^-1); higher = faster piRNA-guided slicing of the target", "conditions": "guide: L1MC piRNA 5'p-UAACUAAAUACUAUGCAAGCUGUAGGUCCU; auxiliary factor: 500 nM mouse GTSF1", "experimental": "(§1)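 Cleave-'n-Seq: a library of target RNAs (target site embedded in constant flanks, ACAGCATTCCGCGTTAGTGATATCCG... 5' flank; DNA-blocked outside the site) at 0.1 nM was incubated with 1 nM active mouse MILI or MIWI piRISC (synthetic 5'-monophosphorylated piRNA guide) with or without 500 nM mouse GTSF1 at 33 °C for 1 min to 16 h. Uncleaved targets were sequenced and normalised to non-target controls, and the pooled three trials were fitted to a burst-and-steady-state model to give the pre-steady-state cleavage rate (min^-1; k3 is constrained to at most 1e-4). Sequence is the target site only; target names encode pairing extent (gX:gY) and contiguous / 1-mismatch / 2-mismatch / bulge geometry. Fits with R² ≤ 0 are excluded.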"}
{"sequence": "UCCUCCUACAGCUUGGAUAGUAUUAAGUUA", "pre-steady-state target cleavage rate": "0.327 ± 0.026"}
{"sequence": "UCCUGGAUGUCCAAGCAUAGUAUUUAGUAA", "pre-steady-state target cleavage rate": "0.00855 ± 0.0048"}
{"sequence": "UCCUGCUAGUGCUUGCAUAGUAUUUUCAAA", "pre-steady-state target cleavage rate": "0.0208 ± 0.0062"}
{"sequence": "UCCUGCUACAGCUUGCAUAGUAUUUAGUUUA", "pre-steady-state target cleavage rate": "1.17 ± 0.077"}
{"sequence": "UGGACCUACGGCUUGCAUAGUAUUUAGUUA", "pre-steady-state target cleavage rate": "1.44 ± 0.1"}
{"sequence": "UCCUGGAACAGCAUGCAUACUAUUUAGUUA", "pre-steady-state target cleavage rate": "0.343 ± 0.021"}
{"sequence": "UCUACCUACAGCUUGCAUAGUAUUUAGUUA", "pre-steady-state target cleavage rate": "1.4 ± 0.043"}
{"sequence": "UCCACCUACACCUAGCAUAGUAUUUAGUUA", "pre-steady-state target cleavage rate": "0.768 ± 0.051"}
{"sequence": "UCCUGCUACAGCUUGGAUACUAUUUAGUUA", "pre-steady-state target cleavage rate": "0.339 ± 0.037"}
{"sequence": "AGGACCUACAGCUUGCUUAGUAUUUUGUUA", "pre-steady-state target cleavage rate": "0.884 ± 0.054"}
{"sequence": "UGGAGGUACAGCUUGCAUAGUAUUUACAAA", "pre-steady-state target cleavage rate": "0.166 ± 0.026"}
{"sequence": "UCGACCUACUGCUUGCAUAGUAUUUUCAAA", "pre-steady-state target cleavage rate": "0.184 ± 0.023"}
{"sequence": "UCCACCUACACCUUGCAUAGUAUUUAGAUA", "pre-steady-state target cleavage rate": "0.315 ± 0.05"}
{"sequence": "UGGACCUACAGCUUGCAUAGUAUUUAGAUA", "pre-steady-state target cleavage rate": "0.445 ± 0.039"}
{"sequence": "UCGACCUACAGCUUGCUAAGUAUUUAGAAA", "pre-steady-state target cleavage rate": "0.0434 ± 0.012"}
{"sequence": "AGGACCCACAGCUUGCAUAGUAUUUAGUUA", "pre-steady-state target cleavage rate": "1.47 ± 0.093"}
{"sequence": "UCCUGGAACAGCUUGCAUAGAAUAUAGUUA", "pre-steady-state target cleavage rate": "0.163 ± 0.02"}
{"sequence": "UGGACCUACAGCUUGCAUACUAUUUAGAAA", "pre-steady-state target cleavage rate": "0.113 ± 0.022"}
{"sequence": "UCCUCCUACAGCUUGCAUUAGUAUUUAGUUA", "pre-steady-state target cleavage rate": "0.0284 ± 0.013"}
{"sequence": "UCCUGGAUGAGCUUGCAUAGUAAAUAGUAA", "pre-steady-state target cleavage rate": "0.0157 ± 0.0069"}
{"sequence": "UCCUGGAACAGCUUGCAAAGUAUUUAGUAA", "pre-steady-state target cleavage rate": "0.599 ± 0.049"}
{"sequence": "UCCUGCUACAGCUUGCAUAGAAUUUACUUA", "pre-steady-state target cleavage rate": "0.313 ± 0.058"}
{"sequence": "UCGACCUACAGCUUGCAUAGUAAUUUCAAA", "pre-steady-state target cleavage rate": "0.359 ± 0.07"}
{"tested_on": "MIWI (PIWIL1) piRISC loaded with L1MC piRNA (30 nt)", "assay": "pre-steady-state target cleavage rate (min^-1); MIWI and MILI are mouse PIWI proteins and EfPiwi is from a freshwater sponge; tags in brackets are library labels; higher = faster piRNA-guided slicing of the target", "conditions": "guide: L1MC piRNA 5'p-UAACUAAAUACUAUGCAAGCUGUAGGUCCU; auxiliary factor: none (no GTSF1)", "experimental": "as §1"}
{"sequence": "UCCUCCUACAGCUUGGAUAGUAUUAAGUUA", "pre-steady-state target cleavage rate": "0.0118 ± 0.0022"}
{"sequence": "UCCUGCUACAGCUUGCAUAGUAUUUAGUUUA", "pre-steady-state target cleavage rate": "0.0574 ± 0.012"}
{"sequence": "UGGACCUACGGCUUGCAUAGUAUUUAGUUA", "pre-steady-state target cleavage rate": "0.0662 ± 0.013"}
{"sequence": "UCCUGGAACAGCAUGCAUACUAUUUAGUUA", "pre-steady-state target cleavage rate": "0.0203 ± 0.0053"}
{"sequence": "UCUACCUACAGCUUGCAUAGUAUUUAGUUA", "pre-steady-state target cleavage rate": "0.0731 ± 0.013"}
{"sequence": "UCCACCUACACCUAGCAUAGUAUUUAGUUA", "pre-steady-state target cleavage rate": "0.0154 ± 0.003"}
{"sequence": "UCCUGCUACAGCUUGGAUACUAUUUAGUUA", "pre-steady-state target cleavage rate": "0.02 ± 0.004"}
{"sequence": "AGGACCUACAGCUUGCUUAGUAUUUUGUUA", "pre-steady-state target cleavage rate": "0.0276 ± 0.0071"}
{"sequence": "UGGAGGUACAGCUUGCAUAGUAUUUACAAA", "pre-steady-state target cleavage rate": "0.00502 ± 0.0022"}
{"sequence": "UCGACCUACUGCUUGCAUAGUAUUUUCAAA", "pre-steady-state target cleavage rate": "0.00371 ± 0.0019"}
{"sequence": "UCCACCUACACCUUGCAUAGUAUUUAGAUA", "pre-steady-state target cleavage rate": "0.0153 ± 0.0035"}
{"sequence": "UGGACCUACAGCUUGCAUAGUAUUUAGAUA", "pre-steady-state target cleavage rate": "0.0386 ± 0.0082"}
{"sequence": "AGGACCCACAGCUUGCAUAGUAUUUAGUUA", "pre-steady-state target cleavage rate": "0.0682 ± 0.0093"}
{"sequence": "UCCUGGAACAGCUUGCAUAGAAUAUAGUUA", "pre-steady-state target cleavage rate": "0.00581 ± 0.0038"}
{"sequence": "UGGACCUACAGCUUGCAUACUAUUUAGAAA", "pre-steady-state target cleavage rate": "0.00607 ± 0.0025"}
{"sequence": "UCCUGGAACAGCUUGCAAAGUAUUUAGUAA", "pre-steady-state target cleavage rate": "0.0202 ± 0.0052"}
{"sequence": "UCCUGCUACAGCUUGCAUAGAAUUUACUUA", "pre-steady-state target cleavage rate": "0.0078 ± 0.0019"}
